Measured values from PubChem BioAssay AID1508624 (National Center for Advancing Translational Sciences (NCATS), 2021).
The whole screen tested about 48,000 compounds, of which about 120 (0.25%) were called active. Inconclusive results (about 4%) are left out. Calls come from the whole dose curve; as a rule, active = well fitted activation curve with a large enough effect; inconclusive = small, poorly fitted or top-dose-only effect, or another doubt; inactive = no such curve, though single readings can be large or run the other way. The list shows a part of the results.

experiment: Primary qHTS for Identification of Small Molecule Activators of Huntingtin-Antisense Promoter Activity; conditions: HEK293 HTT-AS promoter firefly luciferase reporter (activity 0% = vehicle and -100% = no light), 24 h; series mostly up to 57.5 µM; activity change, positive = activation: at the top concentration; note: nearly all actives have a fitted effect of over 55% in size
Outline: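 Luminescence was read after Dual-Glo reagent and a 10 min room-temperature incubation. Values were normalized to vehicle (0% activity) and zero RLU (-100% activity). Reporter HEK293 cells had been exposed to compounds (up to 57.5 uM final) for 24 h.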

Activity change, positive = activation, inactive:
Cc1oc(-c2cccc(Cl)c2)nc1CN1CCC(C(=O)NCCCN2CCN(c3ccccc3F)CC2)CC1 -24.6%
CCOC(=O)CSc1nc2c([nH]c3ccccc32)c(=O)n1-c1ccc(OC)cc1 -8.62%
O=C(CN(CCc1ccccc1)S(=O)(=O)c1ccc(Br)cc1)NCc1ccc(Cl)cc1 -18.8%
COc1ccc(N(Cc2cccs2)C(=O)c2ccc(Br)o2)cc1 -32.5%
CCC1CN(C(=O)C2CCN(S(=O)(=O)c3c(C)noc3/C=C/c3ccccc3F)CC2)c2cc(Cl)ccc2O1 (configuration not stated) 18.4%
COc1ccc(OC)c(Nc2ncnc3c2cnn3-c2cccc(Cl)c2)c1 -11.6%
Cc1ccn2c(Nc3ccc(F)cc3)c(-c3ccccn3)nc2c1 21.3%
O=C(Cn1nc(-c2ccccc2)nc(Cc2ccccc2)c1=O)Nc1ccccc1 -4.97%
CCCCC(=O)OC1=C(C(C)=O)N(Cc2ccccc2)S(=O)(=O)c2ccccc21 -17.6%
CCC(Sc1ncnc2sc3c(c12)CCCC3)C(=O)OC(C)C (configuration not stated) -23.5%
CCCC(=O)N1CC(=O)Nc2ccc(Cl)cc2C1c1ccccc1 (configuration not stated) -4.71%
Cc1ccc(N2C(=O)NC(NS(=O)(=O)c3ccc(Cl)cc3)(C(F)(F)F)C2=O)cc1C (configuration not stated) -28.3%
COc1ccc(S(=O)(=O)N2CCC(c3ccncc3)CC2)cc1OC -28.1%
CCc1ccc(NC(=O)Cn2c(=O)n(Cc3nc(-c4ccccc4)no3)c(=O)c3cc4c(cc32)OCO4)cc1 -5.08%
Cc1cccc(C(=O)Nc2ccc(C(=O)OCc3cc(=O)n4nc(C5CC5)sc4n3)cc2)c1 0%
COc1ccccc1N1CCN(C(=O)CCc2nnc3n(C)c(=O)c4sccc4n23)CC1 -11.1%
COc1ccc(S(=O)(=O)NCC(c2ccc(N(C)C)cc2)N2CCc3ccccc32)cc1 (configuration not stated) -0.703%
COCCNC(=O)CSc1cn(CC(=O)N2CCCCCC2)c2ccccc12 -14.6%
Cc1ccc(NC(=O)C2CCCN2S(=O)(=O)c2ccc3nc(-c4ccccc4)[nH]c3c2)cc1F (configuration not stated) -37.8%
CCOc1ccc(OCC)c(NC(=O)C2CCN(S(=O)(=O)c3cn(C)cn3)CC2)c1 -1.84%
CSc1cccc(NC(=O)CC(c2cccs2)N2Cc3ccccc3C2=O)c1 (configuration not stated) -33%
COc1cc(-c2noc(CN3CCN(c4cccc(Cl)c4)CC3)n2)cc(OC)c1OC -13.5%
CCOc1ccccc1NC(=O)N1CCN(C)c2ncccc21 -20.4%
Cc1ccc(NC(=O)CSc2n[nH]c(-c3ccc(F)cc3)n2)cc1F -20.1%
O=Cc1ccccc1C=O -6.06%
COc1ccc2nc(NC(=O)c3nc(S(=O)(=O)Cc4ccccc4)ncc3Cl)sc2c1 -54.8%
CSc1ccc(CCNC(=O)CCc2c(C)nc3c(c(C)nn3-c3ccc(C)c(C)c3)c2C)cc1 -7.41%
